± gives the uncertainty stated by the source. The full ranking holds about 9,900 compounds; the median of “viability index relative to DMSO control” is about 1, and the lowest 2% start at about 0.85. Some of the results follow.
Each compound was assayed on Plasmodium falciparum NF54 stage V gametocytes (assay: viability index relative to DMSO control (fraction); higher = less gametocyte killing). Details: 2.5 µM, library set: Broad Institute DOS, incubation time: 72 h.
Outline: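 P. falciparum NF54 stage V gametocytes (serum-free medium, 0.75% gametocytemia, 1.25% hematocrit) were exposed to compound at 2.5 µM for 72 hr at 37°C under low oxygen, then stained with MitoTracker Red CMXRos and saponin for one to two hours. Red particles of 20–70 µm2 in one field per well were counted, and the viability index is that count scaled to the plate mean of solvent-only wells.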

Row | Compound | viability index
1 | COc1ccc2c([nH]c3[C@H](CO)N(Cc4ccc(F)cc4)C[C@]4(CCN(CC4)Cc4ccccn4)c23)c1 | 1.01 ± 0.028
2 | COc1ccc(NC(=O)N2CC[C@@]3(CC2)CN([C@@H](CO)c2c3c3ccc(OC)cc3n2C)C(=O)C2CCC2)cc1 | 0.897 ± 0.041
3 | O=C(C[C@@H]1CC[C@@H]2[C@H](COC[C@H](O)CN2S(=O)(=O)c2ccc(F)cc2)O1)NCCN1CCCCC1 | 1.05 ± 0.11
4 | C[C@H]1CN([C@@H](C)CO)C(=O)c2cc(NC(=O)Nc3cccc4ccccc34)ccc2O[C@@H]1CN(C)S(=O)(=O)c1cccs1 | 1.06 ± 0.026
5 | C/C=C/c1ccc([C@@H]2[C@@H]3CN(S(=O)(=O)c4ccccc4F)C[C@H]2N3)cc1 | 0.904 ± 0.016
6 | C[C@H](CO)N1C[C@H](C)[C@@H](CN(C)Cc2cccnc2)Oc2ncc(-c3ccc(C#N)cc3)cc2C1=O | 1.05 ± 0.034
7 | CC(C)CC#Cc1ccc([C@@H]2[C@H](CO)N3C(=O)CN(C(=O)Nc4cc(F)ccc4F)C[C@@H]23)cc1 | 1.04 ± 0.023
8 | CN1C(=O)c2cc(NC(=O)C3CCOCC3)ccc2OC[C@@H]2O[C@H](CC(=O)NCC3CCCCC3)CC[C@H]21 | 1.07 ± 0.11
9 | CO[C@@H](CN(C)C(=O)c1cc(Cl)cc(Cl)c1)[C@@H](C)CN(C(=O)Nc1ccc(F)cc1)[C@@H](C)CO | 1.04 ± 0.018
10 | COCCNC(=O)c1cc2c(c(-c3cccc(C4=CCCCC4)c3)n1)[C@@H](CCO)N([S@](=O)C(C)(C)C)C2 | 0.982 ± 0.13
11 | CCS(=O)(=O)N1[C@H](CO)[C@H](c2ccc(-c3cccc(F)c3)cc2)[C@@H]1C#N | 1.065 ± 0.0011
12 | CC(C)NC(=O)N(C)C[C@H]1Oc2c(NS(=O)(=O)c3cccs3)cccc2C(=O)N([C@@H](C)CO)C[C@@H]1C | 0.941 ± 0.042
13 | CCC(=O)N1CC(=O)N2[C@H](CO)[C@H](c3ccc(C#CCC(C)C)cc3)[C@@H]2C1 | 0.971 ± 0.027
14 | OC[C@H]1[C@@H](c2ccc(C#Cc3ccccc3F)cc2)[C@H]2CN(CC3CCOCC3)CCCCN21 | 0.938 ± 0.011
15 | CNC[C@@H]1OCCCC[C@@H](C)Oc2ccc(N)cc2C(=O)N([C@@H](C)CO)C[C@H]1C | 1.06 ± 0.032
16 | C/C=C/c1ccc2n(c1=O)C[C@H]1[C@H](CO)[C@@H](C(=O)N[C@@H](C)c3ccccc3)N(C(=O)c3ccccn3)[C@@H]21.C/C=C\c1ccc2n(c1=O)C[C@H]1[C@H](CO)[C@@H](C(=O)N[C@@H](C)c3ccccc3)N(C(=O)c3ccccn3)[C@@H]21 | 1.065 ± 0.0094
17 | CC(C)C#Cc1ccc([C@H]2[C@H](CO)N3C(=O)CN(C(=O)c4ccc5c(c4)OCO5)C[C@@H]23)cc1 | 1.07 ± 0.082
18 | OC[C@@H]1[C@H](c2ccccc2)C2(CN(Cc3ccccc3F)C2)N1Cc1ccccc1F | 1.03 ± 0.043
